# Measured values: PubChem BioAssay AID1508642 (National Center for Advancing Translational Sciences (NCATS), 2021)
# The campaign covered roughly 43,000 compounds. About 200 (0.47%) were called active. About 12% were inconclusive and are not listed. The call rests on the fitted dose curve; in most records, active means well fitted cell-killing curve with a large enough effect; inconclusive means small, poorly fitted or top-dose-only effect, or effect the other way; inactive means flat fitted curve, though single readings scatter. The list shows a part of the results.
# Assay: Cell viability qHTS assay in S16 Pmp22-F2sN cells; further: nearly all actives have a fitted effect of over 65% in size
# Conditions: S16 Pmp22-F2sN Schwann cells (luciferase reporters placed in the Pmp22 gene) viability, CellTiter-Glo, 24 h; series mostly up to 57.5 µM; activity change, negative = cytotoxicity: at the top concentration
# Method in brief: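 Luminescence from CellTiter-Glo, read by CCD camera after a 15 min room-temperature incubation, served as the viability signal. Reporter Schwann cells (S16 Pmp22-F2sN) had been treated with pin-transferred compounds for 24 h at 37C.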
# On the % scale 0 is the no-effect control and ±100 the full control effect.
row,Structure (SMILES),"activity change, negative = cytotoxicity"
1,COc1ccccc1CNC(=O)Cn1c(=O)ccc2cc(S(=O)(=O)N3CCCC3)ccc21,inactive: -3.41%
2,Cc1cccc(Oc2coc3cc(OCC(=O)NC4CCCCC4)ccc3c2=O)c1,inactive: -16.1%
3,COc1ccc(-c2cn3nc(N4CCC(C(=O)Nc5ccc(C)cc5)CC4)sc3n2)cc1,inactive: -8.48%
4,COc1ccc(CNC(=O)CN2C(=O)COc3ccc(S(=O)(=O)N4CCOCC4)cc32)cc1,inactive: 7.09%
5,CCOc1ccc(/C=C/c2nc(C#N)c(N3CCN(c4ccccc4)CC3)o2)cc1,inactive: 14.6%
6,CCOCN(C(=O)Cn1cnc2cc(C)c(C)cc21)c1c(C)cccc1CC,inactive: 1.38%
7,COc1ccc(Br)cc1CNC(=O)C1COc2ccccc2C1 (stereo not drawn),inactive: 8.28%
8,O=C(Nc1ccc(C(=O)N2CCN(c3ccc(Cl)cc3)CC2)cc1)c1nsc2ccccc12,inactive: -15.3%
9,CC(C)c1ccc(NC(=O)Cn2nnc(C(=O)NCc3cccs3)c2N)cc1,inactive: 5.82%
10,Fc1ccc(Nc2nc(Nc3ccc(F)cc3)nc(N3CCOCC3)n2)cc1,inactive: 4.09%
11,CCCCn1c(SCC(=O)Nc2ccc(F)cc2)nc2c(sc3ccccc32)c1=O,inactive: -2.41%
12,COc1ccc(C(=O)NCC(c2ccc3c(c2)OCO3)N2CCN(c3ccc(F)cc3)CC2)cc1 (stereo not drawn),inactive: -13%
13,Cc1ccc(N(CC(C)C)S(=O)(=O)c2nnc(NC(=O)c3cccs3)s2)cc1,inactive: -26.9%
14,CCOc1ccccc1N(CC(=O)Nc1ccc(OC)c(Cl)c1)S(=O)(=O)c1ccccc1,inactive: -0.806%
15,O=C(CSc1nnc(-c2ccc(Br)cc2)n1-c1ccccc1)c1ccccc1,inactive: -4.82%
16,Cc1ccc2oc3c(c(=O)c2c1)C(c1ccc(OCC(N)=O)cc1)N(Cc1ccc2c(c1)OCO2)C3=O (stereo not drawn),inactive: -2.65%
17,CNC(=O)CSc1nnc(NC(=O)Nc2ccccc2)s1,inactive: 0.172%
18,COc1ccc(NC(=O)C(=O)NCC2(c3ccccc3)CCCC2)c(OC)c1,inactive: -11.6%
19,COc1ccccc1Cc1nc2ccccc2nc1SCC(=O)N1CCC(C)CC1,inactive: -1.17%
20,CCOC(=O)c1cc(-c2ccccc2)n(CCCC(=O)Nc2cc(C)ccc2OC)c1C,inactive: -4.95%
21,Cc1cccc(C(=O)Nc2ccc(N3CCN(c4ccc(F)cc4)CC3)c(C(=O)O)c2)c1,inactive: 1.01%

row,Structure (SMILES),"activity change, negative = cytotoxicity"
1,COc1ccccc1NC(=O)c1cc(C2CC2)nc2c1c(C)nn2-c1ccc(C)cc1,inactive: 0.165%
2,CC(C)CCN(Cc1ccco1)C(=O)Cn1ncc2c([nH]c3ccccc32)c1=O,inactive: -0.693%
3,O=c1c(N2CCc3ccccc3C2)csc2ccc(Br)cc12,inactive: -1.61%
4,COc1ccc(S(=O)(=O)c2cn(Cc3ccccc3)c3cc(F)c(F)cc3c2=O)cc1,inactive: -2.5%
5,CN1C(=O)c2[nH]nc(-c3ccc(F)cc3)c2C1c1ccccn1 (stereo not drawn),inactive: -3.98%
6,CCOc1ccc(C(=O)NCc2ccc3c(c2)CCN3C(=O)c2ccc(C)cc2)cc1OCC,inactive: -8.67%
7,COc1ccc(Nc2cc(C(=O)NCc3ccccc3)c3ccccc3n2)cc1OC,inactive: 5.85%
8,Cc1ccn2c(Nc3ccc4c(c3)OCCO4)c(-c3ccc(C)s3)nc2c1,inactive: -0.161%
9,Cc1ccc2nc(SCC(=O)Nc3ccc(C#N)cc3)[nH]c2c1,inactive: -4.09%
10,Cc1c(C(=O)N2CCC(C)CC2)c(S(=O)(=O)N2CCN(c3cccc(Cl)c3)CC2)c(C)n1C,inactive: 4.27%
11,COc1ccc(OC)c(NC(=O)CCc2nc(-c3ccc(C)cc3)no2)c1,inactive: -7.06%
12,COc1ccc(NC(=O)c2cc3c(=O)n(Cc4cccnc4)ccc3nc2C)cc1Cl,inactive: -22.7%
13,COc1ccccc1NC(=O)c1cc(S(=O)(=O)N2CCc3ccccc32)ccc1F,inactive: -2.46%
14,COc1cc(-c2nnc(SCC(=O)Oc3ccccc3Cl)o2)cc(OC)c1OC,inactive: 14.7%
15,COc1ccc(S(=O)(=O)c2cn(Cc3ccccc3)c3ccc(OC)cc3c2=O)cc1,inactive: -8.06%
16,CN(C)c1ccc(C(CNS(=O)(=O)c2ccc(F)cc2)N2CCc3ccccc32)cc1 (stereo not drawn),inactive: -1.95%
17,C=Cc1ccc(Cn2c(=O)cc(C)c3c(C)nn(C)c32)cc1,inactive: -2.08%
18,Cc1cccc(N2CCN(c3c4c(nc5nncn35)CCC4)CC2)c1C,inactive: 8.1%
19,Cc1cc(Cl)ccc1OCc1cc(=O)n2c3c(sc2n1)CCCC3,inactive: 10.2%
20,Cc1ccc(CN2C(=O)c3ccccc3Sc3ccc(C(=O)NCCCN4CCOCC4)cc32)cc1,inactive: -27.6%
21,COc1ccccc1-c1nnc(SCC(=O)c2ccc(F)cc2)n1-c1ccccc1,inactive: -0.411%

row,Structure (SMILES),"activity change, negative = cytotoxicity"
1,CCc1ccc(CNC(=O)CN2C(=O)CCn3nc(-c4cn(C)c5ccccc45)cc32)cc1,inactive: 8.55%
2,O=C(Nc1cccc(Cl)c1)C1CCCN1S(=O)(=O)c1cccc2cccnc12 (stereo not drawn),inactive: -0.0646%
3,Cn1nnnc1SCCNCc1ccc(OCc2ccc(Cl)cc2)cc1,inactive: -3.26%
4,Cc1cccc(NC(=O)CSc2nc(=O)n(Cc3cccnc3)c3c2CCC3)c1C,inactive: -5.73%
5,Cc1oc(-c2cccc(Cl)c2)nc1CN1CCC(C(=O)NCCc2ccc(Cl)cc2)CC1,inactive: 21.8%
6,CCc1ccc(C2=C(C)C(N3CCC(C(=O)NCCc4ccco4)CC3)=NS2(=O)=O)cc1,inactive: -10.1%
7,COc1cccc(OCC(=O)Nc2nnc3n2CCS3)c1,inactive: 1.6%
8,CCc1noc(-c2ccc(N3CCCCC3)c([N+](=O)[O-])c2)n1,inactive: -2.09%
9,Cc1cc(OCC(=O)NCC2(N3CCOCC3)CCCCC2)ccc1Cl,inactive: -27.4%
10,Brc1ccc2nc(-c3ccccc3)c(Nc3ccc4c(c3)OCO4)n2c1,inactive: 8.92%
11,CCc1cccc(NC(=O)C(CC(C)C)NS(=O)(=O)c2ccc3c(c2)oc(=O)n3C)c1 (stereo not drawn),inactive: -27.7%
12,CCC(=O)N1CCc2cc(CNC(=O)Nc3cc(Cl)ccc3C(=O)OC)ccc21,inactive: 14.2%
13,CCSc1nn(CC(=O)Nc2ccc(C(=O)OC)cc2)c(N)c1S(=O)(=O)c1ccc(C)cc1,inactive: -0.443%
14,COc1cccc(-n2nnc(-c3nc(-c4ccccc4F)no3)c2C)c1,inactive: 1.17%
15,COC(=O)c1cc2occc2n1CC(=O)Nc1ccc(C(C)C)cc1,inactive: 7.83%
16,O=C(Nc1ccc(F)cc1)N1CCN(C(=O)c2nsc3ccccc23)CC1,inactive: -1.05%
17,COc1ccc(-c2nc3c(c(SCC(=O)N4CCCCC4)n2)Cc2c(CO)cnc(C)c2O3)cc1,inactive: -1.96%
18,CSc1cccc(NC(=O)Cn2ncn3c(cc4ccccc43)c2=O)c1,inactive: 6.09%
19,O=C(Nc1cccc(F)c1F)C1CCN(c2ncccn2)CC1,inactive: 3.18%
20,CCOc1ccccc1NC(=O)C(c1ccccc1)N1Cc2ccccc2C1=O (stereo not drawn),inactive: 9.41%
21,Fc1ccccc1N1CCN(c2ncc3c(n2)CCN(Cc2cc(Br)cs2)C3)CC1,inactive: 2.74%
